From paper PMC10726135
The other results are listed elsewhere or left out. At the low end of the ranking the order means little. The protein was read in a cell extract, so binding may be indirect.

These sequences were tested against T1, HNF4alpha2 (COS-7 nuclear extract) (UniProt P41235) (assay: protein-binding microarray). Conditions: COS-7 nuclear extract on double-stranded Agilent 4x180k PBM; binding buffer, salt, pH and temperature not given; high values mean tight binding; double strand, one strand shown; sequences stand for … in …GCCTAGGGAGATTAGAGTATCGGTCGA.
T1 sequence: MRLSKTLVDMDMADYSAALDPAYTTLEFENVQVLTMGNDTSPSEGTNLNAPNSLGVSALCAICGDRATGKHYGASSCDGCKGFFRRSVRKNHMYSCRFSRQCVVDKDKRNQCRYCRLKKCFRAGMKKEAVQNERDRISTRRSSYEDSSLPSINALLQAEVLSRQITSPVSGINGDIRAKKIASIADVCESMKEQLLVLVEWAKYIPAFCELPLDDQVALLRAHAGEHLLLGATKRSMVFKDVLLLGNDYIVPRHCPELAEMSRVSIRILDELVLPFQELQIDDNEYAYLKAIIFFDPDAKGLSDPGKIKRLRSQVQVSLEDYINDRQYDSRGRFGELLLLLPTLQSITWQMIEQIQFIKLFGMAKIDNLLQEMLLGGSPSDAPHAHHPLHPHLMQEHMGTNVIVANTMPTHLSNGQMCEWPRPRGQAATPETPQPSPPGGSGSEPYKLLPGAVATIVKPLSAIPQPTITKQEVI

| Sequence | binding signal (log2 normalized intensity) |
| --- | --- |
| CCCCTTCTTAACATCAGAAGTTGGACTTTG | 7.59 |
| AACTAAAAGTATCTAAGGGCCTAGAAGAGT | -1.12 |
| CTATAGTTATCTCTGCTGATAGCATAAAGC | -0.207 |
| GGGGAAGCTGTTGGGCGCCGGAACTGGTCC | -1.06 |
| CTCCTGGACTTTGGTCTCATGGGCCTAAAC | 4.65 |
| GGGTTGGCATGCATATGAGTAATGTGAAGA | 0.627 |
| TCCTTATTTATCTTCCAGCGGGTGCTTAAA | -0.113 |
| TGTTTGTAAACTGTCATGGTGCTGGCGGGA | 1.53 |
| GAGTGCTTTCATCTTTGCGGTGAGCATTTG | 1.48 |
| AGGGAGGCAGCCACCTAGGCCGGTCAAGTC | -1.07 |
| CATATCTGGAATTTCAAAGGGAGCATATGT | 1.51 |
| AATCTTCATTCCTCAAATGCTCCTTTGAAC | 2.54 |
| GTGGCAGGCACTTAGCAAATATTTACTGAA | -1.11 |
| CTTATACGTGGAAGAAACTCATCTCCAGAT | -0.677 |
| GCATGACTTGTTATCACCTGCTGGAATGTT | 1.62 |
| TCAAATCCCCTAGGTGATTAGAAGATAGCT | -0.992 |
| CCTTCAGTTCTTATCTCGTACTTCTGTTGT | 1.95 |
| GAAAGGATCTCACCCAAACCATCCCAGGCA | 3.26 |
| GAGTCTCCTGGGTAATCACCAAACTTCACA | -1.06 |
| ACTGTAAGATCAAGATTAAGAAGAGCAGCT | -1.17 |
| CCGACCCGCCCGACTACAACAGCCTTGCAG | -0.785 |
| TTGAAGAAATGGTGGACTTTGTAGCTCAAA | 3.83 |
| GACTTCCATTGTGTTGCAGATGATCAAGAG | 1.57 |
| ATCTTCCTCCCCCCTTGGCTACATGTTTGT | 3.7 |
| GTGCTGACCTCCTGTCTCATCCTGTGACCA | 1.42 |

| Sequence | binding signal (log2 normalized intensity) |
| --- | --- |
| CTCAACTCCCTCTGAAGGGAGGGCCAAGCC | -0.0612 |
| TGTACTAATGATTTGTAAATCTCTAGTCCC | 0.557 |
| ATGTCTCAAGATATCTATATGTTTACATAT | 1.87 |
| CCCAGATGCACGTGCTCCAGGAGGGGAGGA | -0.997 |
| GGACAGTGGTCTTTATGACTTGGGTGCACC | 2.02 |
| ACAGTAGGCTCTAGATGTCTCAGTAGATAA | -1.14 |
| AAGACTGAGCAGCTGGAGGGGGACTGGAAG | -1.08 |
| ATTTCATAGACTGTCCCTCAGTGTGGGACT | 0.649 |
| CAGAGGAGATCAGAGGAGGCACTTGTCTCA | -1.11 |
| TGGTTTACATTCTTAGAAGATAAAGTGTCT | 0.541 |
| TGTGCTGAAAAGACTTCACAATCAATTCCA | -1.22 |
| GCTGGTGGGTGGGGGAAGTGTGGTCAAGGG | 0.986 |
| CTCAAGTGACCTTTGACCTCTGGCCTTTGC | 10.2 |
| CAGAAAAATGGAGCAGCTCTGTATTGAGAT | -0.99 |
| TACATTGGACAACTGTACTTTGGACTGGGG | 5.99 |
| ATTTAAGCTTGAGACAAAGGAAACTGATTG | 0.161 |
| AAGGAAGGTGCTTATCAGAGCAAGAGATGG | -0.922 |
| GTCCTTGATAAGCAAGATGACTTTGGTCTA | 1.78 |
| ACAGCAGTGGACTTTGACCTTGGCACTGAA | 9.07 |
| GCATCTCATTACTGACAGAGATCAAAAACC | 0.00616 |
| CATCTACCAGCGTAATTCTGGCTCTTTGAG | 0.87 |
| GCCTAGGAAAACCAGAGACCTTTGTTCACT | 2.89 |
| GCGTGGTGGCCTGTGCCTGTAGTCCCAGCG | -1.12 |
| GATCCCTTATTTGCATGAAGCACAAAGGTT | 2.4 |
| CCTGTACACGGTTCTTGACCTGTGATAAGA | 2.41 |

| Sequence | binding signal (log2 normalized intensity) |
| --- | --- |
| ATGATTTCAGCTTATAAATCTTCAACTGGA | 0.456 |
| GATCAGAAATGTTTGGAATTCCACAGCAGA | -0.681 |
| CAGTGGGCCCAGAGCACAACCTTTGGCCGT | 4.45 |
| CCCTCCATGTAACCCCTTTTCAATTCCTTA | 1.41 |
| CCTGTACCTAGAATTCTTTCACTCCCTTTT | 1.12 |
| GTCCTTCCAAAGTCCTTCTAAAGCAAATTT | 1.45 |
| GGAGGAAATCTCTCTGGTCAAAGGGTAAAG | 2.34 |
| CAAGAAGTTCCAAAGGCCAGTGTGGCTAAC | 0.412 |
| TGTTATTTGCTGAGGTGGGGGAGGTAGGTA | 0.0481 |
| TGCGACTGAGCCCTAAGAAATCTCCAAGTC | -1.13 |
| ACAGGGAAAGTATGGGTCAGCCCTGCCATC | -0.817 |
| CTAGGATCACGCCATGAGTTGGGGACAAAG | -0.695 |
| AGGATTCTTTATCTTAGCTTCAGCTTTGCT | -1.14 |
| TGTCTGGCTAAGACCTTTAGTTAGCCTTTC | 1.4 |
| AGAACGTTCCAAACCTACACAGACCCTCTT | -1.06 |
| AAGCACATCCTGTTCTAGCTCGGGGGCCCT | -1.17 |
| CCCGGACCAGGCCGGGTCACGTGGGTCCAG | 3.05 |
| TGGAACAAGGTCCCATGCACTGGCCTGGAT | -1.12 |
| TTAGAGAAAGGGTCAAAGGTTAAGCCATTG | 5.92 |
| TGCTTCTTGGCCTCTTTGTTTACACTGTGA | 1.53 |
| GCCCTTCCCTAACCCTTCAAGGGCCACTCA | -0.957 |
| GCAAGACGCCGTCTCAAAAAAAAAAAAAAG | -1.08 |
| CAATATTTGTTAAGTACCCACTATAGATTG | 0.719 |
| GCTTCCCTTTCTACTGCCAGCCAGGGCCAC | -0.865 |
| GGCCATTCCAGTTTTGGAGAGGGGAACGAT | -1.21 |

| Sequence | binding signal (log2 normalized intensity) |
| --- | --- |
| TGTGATAAGGTGTTGAAAAGAGCATAAGGT | 0.969 |
| AGAAAAAGAAAAGCCTTGTGGCAGTGAGAA | -1.18 |
| TCCATATTTGGAAGTAAGAACCCCACTATT | 3.03 |
| AACCACCTATTCTGAAGATTGCTAGCTGAG | -1.2 |
| CCAAATTCTCCCAGGCCATACAGATACCCA | -0.972 |
| CCCTTCCTCTGCAGCCGCCCTTTTGCCTCC | 2.7 |
| GAGTTGTCATCATAAAAGTTCTCATGCTAA | -0.896 |
| CAGCCTGATACCAGATCCTTCAGCCAAGGA | -1.24 |
| AACAAAACACGGACTTTGAAGCTCCAAGAT | 0.0164 |
| AGGCTGTTCTGATGCCATTCCCTGCAGGTG | -1.05 |
| ATTGTTAGCCTAAACTATCTGGTGCGGTCC | -0.178 |
| CTAGAGGCCTTCTCTGTGAACACACCGTAG | -1.13 |
| ATAGGTTACCTTGACCAAAGTACAGTAATT | 2.67 |
| CGAACCTGTCTCCAGAGGACTTGCGGTGTT | 0.482 |
| GGACTCCCAAGATGGATTGGGTCCACACAT | 1.63 |
| GCTGCGGTGGGCTCCACCCAGTTCGTGCTT | -1.11 |
| AGCCCTTAGGACCAGGGGGGGAATGCACAG | -1.17 |
| TCCGAATTGGGGGAGGGTAGTCTATCTCAT | -0.541 |
| AGAGTGGACTCACAGCAGGAGGGCTTTCAC | -1.19 |
| AGGGCAGATAACAAGGGCATGTAAAGGAGA | -1.2 |
| TCGCACTTCAGCACCATAAAGATAAGCAAG | -0.988 |
| TGAATATCTGGCAAATTTGCATTAGTGGAG | 0.8 |
| CAGTAACTGTCATGGATGACCTCTTTTAGT | 3.08 |
| GCAGACCTGCCAAAGTGTACCCTGTGCTTC | 1.89 |
| TTAGCTTTCAGTGACTGCTCATTCTTGACC | 1.48 |

| Sequence | binding signal (log2 normalized intensity) |
| --- | --- |
| CTATGTCAGGCCATTTCACCTTTGCCCTGT | 6.82 |
| AGTGCCTGCTTGCAGATAAAACATTTTTTT | 0.513 |
| CGTCAGGAGGAAGCAGCGATGGAAGGGATG | -1.19 |
| TGGATCATGTGTCTGAGCAAGTTTCCTCCT | -0.544 |
| GCGCGTGGCCCAAGGCCTCTGACATAAATC | -1.21 |
| ACCCTGCTGTAGTGTGTAAGTATGCTCACT | 0.822 |
| AGAAATCTCCAAGTCAAACATTAGCCAGGA | -1.11 |
| CTGTCCAGCAGACAATGGGAGACATTCCTT | -1.14 |
| CGCTCCCTGTGCCCACTTTCCTGGGCCGGG | -1.03 |
| TACACACCATAAGAGGCTCTAGATCTCAAA | -0.982 |
| TCACCTGCTCATTGACCCTTAGGCCAAGGC | 2.36 |
| TCAGAAGCAGGTCAATAGGGCAGGGGGGAG | 0.12 |
| AGTCTGGGAAGCTGTGTGAAGTGACTTGCC | 0.0802 |
| TGAGGCCGGAGGGCAGGCGGGCCGCCTTTC | -1.14 |
| TCTGTAAAAGCCAGCATTTCTGTGGACTGC | 1.41 |
| TTCTCCAGTCTATCAGACCAGCATTCTTTC | -1.11 |
| CTGAAGTCCCCTGTGCTTTGGCCAAATAAT | 1.34 |
| TCTCTTGTGCTCATGACAAAGAAATGTAAC | 0.976 |
| GTGTGGTGATGGCAGGAGTCAACAGGCAGA | -0.402 |
| CTGATAGAAAACGTTCACGTCTCAAGCTTC | -1.08 |
| GCCGAGCCTGCAGGTGAATGGAAACAAGAG | -1.17 |
| CCAATAGGTTTGATTTCAGCATGTTTAAAT | 0.49 |
| ATGGGTCCAAAGTTCTGAATGAGCAGACTG | 3.18 |
| AGAGGAGCATGGACTTCTGAGCTTGGCAAA | -1.1 |
| TTTCCAGTCTAAAATACCTGTTCTCCAGCT | -1.13 |

| Sequence | binding signal (log2 normalized intensity) |
| --- | --- |
| GTTGTCTGTGACTGGGGTCAAACTCCACAT | 5.65 |
| GACACCAAACACAGTTGCTGTCTAGAAAGA | -1.01 |
| TCAAGAGGATTACATAACCACCACTGGGCA | -1.22 |
| CTGAAAAACAAAATGCATTTCCTTATTCTT | -1.15 |
| TGTTTGGATGCCAAATTCCTCCCACTCTGA | 0.284 |
| GGGCCTCAGAGAAAGCCTGTTTGCTTCTGC | -1.26 |
| TTTTAGAGATCAGGATACCAAGGCTCAGAG | -0.851 |
| TGTTTCCAATAGGTTTGATTTCAGCATGTT | 1.59 |
| GAGGGAAGGAGCCTAACTTTGATAGGCACA | -1.05 |
| AAGACCAAAGGTCATGGCAACAGTTTTCTG | 3.93 |
| TAGACTATGCCAAACATTTCCTGCCTTTCA | -1.05 |
| TGCCCTTTGCCTCCCTGCATTCCATTTCTG | 2.2 |
| TAGCTGAGGGCGCTGTTGATGGGCAGCGCG | -1.11 |
| TTGAAGTCTGCCCTCCATGTAACCCCTTTT | 3.71 |
| TCTTCCAGCGGGTGCTTAAAAGATAACAGT | 0.115 |
| TCTACAGGACAGCCAGGCAGTCGGGAAATT | -1.03 |
| AAAGGAGGCAAGGTCCAAACTTCTCCACTC | 0.888 |
| CTGCTCTGGGCTTTCTCTGCCTCCATCCCT | 0.641 |
| TCCTTAGTGCATGGGAACTTCTCACCTTCA | -0.652 |
| GTATTTATCAACATTCTTTCTGATAATAGA | 0.733 |
